# Assay results as given in the RNAGym collection of RNA variant scans (doi:10.1073/pnas.2313332121).
# This sample is rich in variants without activity.
# B1: TPR 5TU (parent)
# chain: GGAUCUUCUCGAUCUAACAAAAAAGACAAAUCUGCCACAAAGCUUGAGAGCAUCUUCGGAUGCAGAGGCGGCAGCCUUCGGUGGCGCGAUAGCGCCAACGUUCUCAACUAUGACACGCAAAACGCGUGCUCCGUUGAAUGGAGUUUAUCAUG
# Variants of: B1
# Test: polymerase ribozyme fitness, log enrichment relative to wild type (log ratio); higher = more active; in vitro selection for triplet polymerase activity
# In short: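 Fitness measures genotype enrichment against wild-type enrichment on a logarithmic scale, with inverse-variance-weighted averaging of replicates. The logarithm is base 2, and genotypes were kept only with ≥10 input reads and ≥1 read per output in Illumina sequencing. The sequenced libraries came from one triplicate in vitro selection round, including frozen incubation at −7 °C, of PCR-built, transcribed mutant libraries of each subunit of a heterodimeric triplet polymerase ribozyme.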
row,Variant,polymerase ribozyme fitness (log ratio)
1,G50U A60U,-0.536
2,A49C G94C C123G,≤ -4.2
3,G50U G94A U102C C103U,-3.63
4,C51A G68A A73U C76U C95A C99U,≤ -4.2
5,A49G C51A A66U U82A G86A C103U,≤ -4.2
6,C51U G133A,≤ -4.2
7,G50A U145C,-0.761
8,A49G A73U G86A A98U A142U U144C,≤ -4.2
9,G50A G68C U77C U82G G92C,≤ -4.2
10,C51U C116U A121C G152U,-3.78
11,G50C G92A C96G G124A,≤ -4.2
12,A49G C51G,-2.66
13,G50C C57G G140U U144G U146A,≤ -4.2
14,C51U C95G,-1.68
15,C51U C95U,-1.69
16,G50U G86A,-2.57
17,G50U G86U,-1.71
18,A49C U53A C116U,≤ -4.2
19,G50A A89U C99U,-2.94
20,G50C G58C G83A G140A A142U,≤ -4.2
21,G50A U56A G71U A115C A137G A138G,≤ -4.2
22,C51A A52U C75U G86A G100A U135G,≤ -4.2
23,A49G G50U A73C G83C C93G C108U,≤ -4.2
24,G50C C125A,-2.76

row,Variant,polymerase ribozyme fitness (log ratio)
1,G50A C54A C95A A107G C108U U148C C149U,≤ -4.2
2,C51U C57A G68A,≤ -4.2
3,G50A C87A A121C U144G,≤ -4.2
4,G50C C87U C123A C125G,-3.47
5,G50A G141C,-1.77
6,C51U U53A G86U U90C C131A U144G,≤ -4.2
7,G50C A64C G80A A120C G128U,≤ -4.2
8,A49G C85A G143U,≤ -4.2
9,A49C G71C C72U G83A,≤ -4.2
10,C51U G65U G92U U109A A137U,≤ -4.2
11,G50C G58U,-1.88
12,G50C C51U C79U C93G,≤ -4.2
13,A49C U53A,≤ -4.2
14,C51G C85A A89C A91G,≤ -4.2
15,A49U C103G,≤ -4.2
16,C51A C57U G59U G100C A119U A122U U145G,-4.13
17,C51U A89U C95A A122G G126C C149U,≤ -4.2
18,G50A C57U C72G G86A U130G,≤ -4.2
19,G50A C54U A60C G88C,≤ -4.2
20,C51A A91G C116A U139A,≤ -4.2
21,G50A A52C G84U A122U G141U,-3.68
22,G50C U102G,-3.32
23,C51A C57A G92U G124C U144C,≤ -4.2
24,G50C C57A A66C C85G,≤ -4.2

row,Variant,polymerase ribozyme fitness (log ratio)
1,C51G U56A A97U C123U,-3
2,C51G C87A A115U C118U G140U,≤ -4.2
3,G50A A52C U55A G68A G74C U109A C149G,≤ -4.2
4,A49U C85G A106U,≤ -4.2
5,G50A C76U C96A A121G,-1.1
6,C51A G140U,-4.11
7,A49U C75G G92C,≤ -4.2
8,A49G A52G U56A G74C,≤ -4.2
9,C51U G92U,-1.86
10,G50C C54A G80C C93G,≤ -4.2
11,G50U G68A C93U C116A U146C,≤ -4.2
12,C51A C96A A115G A137U,≤ -4.2
13,G50C G83C A89G,≤ -4.2
14,A49U C69G C75A U90G,≤ -4.2
15,G50U C96U C108A G136C,≤ -4.2
16,G50U C96U C99A C103G G124C C129A U144G,≤ -4.2
17,G50U C87U G136U,-2.29
18,C51A C96A,-1.26
19,A49U A89U C132U,-2.65
20,A49C G59A G62C G83A,≤ -4.2
21,A49G U55A C79U G92U C95A G140A,≤ -4.2
22,G50U G80U C108G,≤ -4.2
23,C51A U55G A60G C93U,-2.7
24,G50A U77G G81A A91U A97G A122U,≤ -4.2

row,Variant,polymerase ribozyme fitness (log ratio)
1,C51G C75G,≤ -4.2
2,G50C C54G C87G A98U G124A G126U A147C,≤ -4.2
3,G50A G84A U104G A122U G133U G141C,≤ -4.2
4,G50C U53G C125A G126C,≤ -4.2
5,A49G G126U,-0.157
6,G50C G58A C125A,-3.17
7,C51A C76A,≤ -4.2
8,G50A C51G C79A G83C A98G C123G C129A A147C,≤ -4.2
9,A49C G62C C93A,≤ -4.2
10,G50A U56A,-1.5
11,A49U C79A G83C C108U C131U G141C,≤ -4.2
12,A49C G112C A142U,≤ -4.2
13,C51A C87A G133U C149G,≤ -4.2
14,G50C A91G,-4
15,C51U U53A G65U G84U C93A C116G U135G,≤ -4.2
16,G50A G70A C95U G100A,≤ -4.2
17,C51G G84A U90C U134C,≤ -4.2
18,G50A G71C U82G C85G,≤ -4.2
19,G50C C85G G133A,≤ -4.2
20,G50U C63U C79G C131G A137C,≤ -4.2
21,G50C C75U C85G,≤ -4.2
22,C51U C95G A110U G141U,≤ -4.2
23,G50C U78A G92A,≤ -4.2
24,G50C C54A C93G U135C U145G,≤ -4.2

row,Variant,polymerase ribozyme fitness (log ratio)
1,A49U C54A U61A A106U A121C C125G U134C,≤ -4.2
2,A49G C54G C76G C95A G140U A147U,≤ -4.2
3,G50U U56G C57G C69U C96A C99A A107G C116G,≤ -4.2
4,C51U G88U,≤ -4.2
5,A49G U56G G83C,-2.85
6,A49G U82G C87U G94A A120G,≤ -4.2
7,G50U C85A,-1.4
8,G50A C85G C93A C129G,≤ -4.2
9,A49G A60U,-1.62
10,G50C C87A C95U,≤ -4.2
11,A49G G84A,-0.52
12,G50U U146C,0.0837
13,G50C A113U,≤ -4.2
14,G50U C87A G112C C123U U148G,≤ -4.2
15,C51U C93A,-2.34
16,C51U C93U,-2.53
17,C51G G59A A73G U90G A97U A98U G126A,≤ -4.2
18,G50C G65U A66G G88U,≤ -4.2
19,G50C C54U G83C G94U C108G,≤ -4.2
20,C51U C95G C105U U145A,-1.72
21,A49G G83A U144G A147U,-1.87
22,G50U C63U A91U,≤ -4.2
23,C51G U56A A106U,≤ -4.2
24,G50C U53A U55A C85G G88C C116G,≤ -4.2

row,Variant,polymerase ribozyme fitness (log ratio)
1,G50A G143C,-3.85
2,A49U U101C C116U,-1.49
3,G50A C87U A97U,-3.34
4,A49C U53A G86U A115G,≤ -4.2
5,G50U G59U G83A C103A,≤ -4.2
6,G50C A64U U78C C116G,≤ -4.2
7,G50U C57U G84U C103U,-2.21
8,G50A U53C U56A A91U G94C U127G G143U,≤ -4.2
9,G50A A115G,-2.49
10,G50C G84U A142C,≤ -4.2
11,C51U C87A A97U A107U,≤ -4.2
12,C51U A52C C85G A106G C125U,≤ -4.2
13,G50C U101G,-2.64
14,G50U U139C,-3.65
15,G50U C76A G86A A89C C108A U146C,≤ -4.2
16,G50U U55A A66G C95U C103A A138U,≤ -4.2
17,C51A U134G U144A,-4.17
18,G50C G92A,≤ -4.2
19,A49U G70U C85G U90C C131U,≤ -4.2
20,C51A A60G C95G U146C U151G,≤ -4.2
21,C51G C79G G86U C114U U134A,≤ -4.2
22,A49U U53A G59A C85U A98G U148C,≤ -4.2
23,A49G C54U G71U C87A A106G A121U U127C U148A,≤ -4.2
24,C51A C76U U109G A137G,≤ -4.2

row,Variant,polymerase ribozyme fitness (log ratio)
1,A49C G92C U104A A137C,≤ -4.2
2,G50U U104G G143U,-3.47
3,A49G A52C C85U A106G A138C,≤ -4.2
4,G50A G59U C76A C103U A122G U135A U145C,≤ -4.2
5,G50C U55C G100A A115G U127C,≤ -4.2
6,G50A A66C G94U,≤ -4.2
7,G50A U78G G86A A115U,≤ -4.2
8,A49C G86U C96G C123U U146G,≤ -4.2
9,G50A C87A C118U,≤ -4.2
10,A49C G86U,≤ -4.2
11,C51G C79G C96G,≤ -4.2
12,C51G C79A,≤ -4.2
13,C51G G62C C85A G143A,-1.5
14,C51U A64U C96U A106U A115G,≤ -4.2
15,A49C G83C C149A,≤ -4.2
16,A49C C85A C93G C103A C149G,≤ -4.2
17,G50C C93U,-4.15
18,G50C C93A,≤ -4.2
19,A49U A52C G71U G83C,≤ -4.2
20,A49C C87U,-4.01
21,G50C C69A C75U,≤ -4.2
22,G50C A64U C93G U111G C116U G143U,≤ -4.2
23,G50C A73U G84U G133U,≤ -4.2
